The values below come from PMC4336329 (PLoS ONE, 2015).

The campaign covered roughly 310,000 compounds. About 14,000 (4.5%) showed an effect of 50% or more. The effect is printed as a negative number. This is one part of the list.
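Also: peak tail current of the secondary pulse compared with the same well before compound.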

For this experiment, the target named is human ether-à-go-go-related gene (hERG) potassium channel (human, UniProt Q12809). Briefly: primary screen, population patch clamp on CHO cells stably expressing hERG.
Chain of human ether-à-go-go-related gene (hERG) potassium channel (Q12809 whole entry, looked up): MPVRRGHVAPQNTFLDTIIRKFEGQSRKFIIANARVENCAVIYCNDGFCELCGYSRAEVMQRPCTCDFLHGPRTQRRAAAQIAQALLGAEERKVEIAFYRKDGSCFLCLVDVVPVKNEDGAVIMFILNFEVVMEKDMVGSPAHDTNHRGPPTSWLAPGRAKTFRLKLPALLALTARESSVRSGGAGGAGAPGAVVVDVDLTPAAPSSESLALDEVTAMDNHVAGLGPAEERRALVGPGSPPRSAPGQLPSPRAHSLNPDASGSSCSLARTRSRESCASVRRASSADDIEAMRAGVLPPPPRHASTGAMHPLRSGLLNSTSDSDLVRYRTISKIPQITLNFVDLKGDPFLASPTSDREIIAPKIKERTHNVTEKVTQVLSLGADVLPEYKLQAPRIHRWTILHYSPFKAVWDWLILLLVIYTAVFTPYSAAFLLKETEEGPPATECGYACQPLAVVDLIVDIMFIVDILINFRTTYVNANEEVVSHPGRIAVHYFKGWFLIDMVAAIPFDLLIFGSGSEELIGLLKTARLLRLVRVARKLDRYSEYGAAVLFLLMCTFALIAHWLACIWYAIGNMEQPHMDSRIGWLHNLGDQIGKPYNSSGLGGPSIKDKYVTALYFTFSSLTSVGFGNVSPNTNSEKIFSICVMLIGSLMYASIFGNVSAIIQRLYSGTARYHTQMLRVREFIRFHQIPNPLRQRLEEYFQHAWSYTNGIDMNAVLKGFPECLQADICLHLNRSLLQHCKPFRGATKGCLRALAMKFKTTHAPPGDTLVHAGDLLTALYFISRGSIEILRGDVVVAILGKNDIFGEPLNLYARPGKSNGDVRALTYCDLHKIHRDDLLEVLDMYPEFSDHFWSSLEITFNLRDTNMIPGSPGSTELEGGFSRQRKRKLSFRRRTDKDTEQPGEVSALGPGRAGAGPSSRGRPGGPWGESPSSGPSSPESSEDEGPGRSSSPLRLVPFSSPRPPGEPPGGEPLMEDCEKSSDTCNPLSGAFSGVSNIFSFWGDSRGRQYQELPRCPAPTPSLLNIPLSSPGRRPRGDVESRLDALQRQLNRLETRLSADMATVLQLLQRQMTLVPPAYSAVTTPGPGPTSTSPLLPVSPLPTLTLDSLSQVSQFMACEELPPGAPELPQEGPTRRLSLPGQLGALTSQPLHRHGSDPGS
`O=C(CN(c1ccc2c(c1)OCCO2)S(=O)(=O)c1ccccc1)NCc1ccco1`: the “hERG current change (%, negative = inhibition) at 10uM” value turned out to be 4.37%.
To `CS(=O)(=O)N1CCN(C(=O)c2ccc3c(c2)OCCO3)CC1` belongs 16.7%; to `COc1ccc(CSc2nnc(SCc3ccc([N+](=O)[O-])cc3)s2)cc1`, 0.108%; to `Cc1ccc(OC(=O)C(C)c2cccc(C(=O)c3ccccc3)c2)cc1` (stereo not shown), 11.1%.
Regarding `O=C1CC(c2ccccc2)c2cccc(F)c21` (stereo not shown), the “hERG current change (%, negative = inhibition) at 10uM” value was determined as 6.18%.
Then `Cc1cc(C)c(C(=O)N2CCCC(C(=O)c3cc(F)ccc3F)C2)o1` (stereo not shown), with 2.67%; and `Cc1nn(-c2ccccc2)c(Cl)c1C1C(C#N)=C(N)OC2=C1C(=O)CC(C)(C)C2` (stereo not shown), with 3.18%.
To `COc1cc(NC(=O)Cn2cnc(S(=O)(=O)N3CCC(C)CC3)c2)cc(OC)c1OC` belongs 20.6%; to `CCOC(=O)C1=C(CN2CCN(C(=O)c3ccco3)CC2)NC(=O)NC1c1ccc(Cl)cc1` (stereo not shown), -35%; to `CCOC(=O)c1c(N)sc(C(=O)Nc2ccccc2)c1C`, -9.89%.
In the case of `COC(=O)c1ccccc1NC(=O)NCc1ccco1`, the “hERG current change (%, negative = inhibition) at 10uM” value was 11.2%.
To `CCOc1ccc(S(=O)(=O)N2CCC(C(=O)N3CCOCC3)CC2)cc1C` belongs 9.77%; to `CC(C)(C)NC(=O)/C(=C/c1cccnc1)NC(=O)c1ccco1`, -2.54%.
With `C[C@@H]1CN(C2CCN(Cc3nc(CC4CC4)no3)CC2)C[C@H](C)O1`, the “hERG current change (%, negative = inhibition) at 10uM” value is recorded as -1.44%.
Regarding `Cc1ccccc1C(=O)N1CCN(c2ccc(NC(=O)c3ccc([N+](=O)[O-])o3)cc2)CC1`, the “hERG current change (%, negative = inhibition) at 10uM” value is 12.8%.
Then `O=S(=O)(Nc1ccc(N2CCCCC2)cc1)c1ccc(F)cc1F`, with 3.73%; and `CCCNC(=O)C1CCN(S(=O)(=O)c2c(C)noc2/C=C\c2ccc(OC)cc2)CC1`, with -14.2%.
Then `COC(=O)C(C)Sc1ccc2nnc(CCNS(=O)(=O)c3ccc(C)cc3)n2n1` (stereo not shown), with -20.9%; and `Cc1c(OCC(=O)OC(C)(C)C)ccc2c3c(c(=O)oc12)CCC3`, with 20%; and `CCN(CC)CCNC(C(=O)Nc1ccc([N+](=O)[O-])cc1Br)c1ccccc1` (stereo not shown), with -77%.
On to `CCc1ccc(NC(=O)CNS(=O)(=O)c2c(C)noc2C)cc1`, for which the “hERG current change (%, negative = inhibition) at 10uM” value was -2.28%.
Then `O=C(NCCC1CCCCN1S(=O)(=O)c1ccccc1)C(=O)Nc1ccc(F)cc1F` (stereo not shown), with 2.67%.
With `CCN(C(=O)c1cc2c(=O)n3cccc(C)c3nc2n1CCCOC)C1CCCCC1`, the “hERG current change (%, negative = inhibition) at 10uM” value was -44.1%.
Then `Cc1nn(-c2ccccc2)nc1C(=O)c1c(C)[nH]n(-c2ccccc2)c1=O`, with 15.2%.
As to `CC1(C)CC(N2CCC(=O)N(C3CC(C)(C)NC(C)(C)C3)C2)CC(C)(C)N1`, the “hERG current change (%, negative = inhibition) at 10uM” value was -7.71%.
On to `Cc1cc(C)c(C)c(S(=O)(=O)N2C(=S)NC(=O)C2C(C)C)c1C` (stereo not shown), for which the “hERG current change (%, negative = inhibition) at 10uM” value is on record as 20.8%.
To `COc1ccc(OC)c2c1C(=O)C(Cl)=C(Cl)C2=O` belongs 13.4%; to `COc1ccc(-c2cn3c(C)c(C(=O)N4CCN(c5ccc(F)cc5)CC4)sc3n2)cc1`, 1.07%; to `CCCC1c2ccc(C)n2CCN1C(=O)Nc1ccc(F)cc1` (stereo not shown), -20.9%.
Take `Cc1nc2ccccn2c1C(=O)NNS(=O)(=O)c1ccc(C(C)(C)C)cc1`: the “hERG current change (%, negative = inhibition) at 10uM” value is 7.38%.
On to `CCC(CC)=NNc1ccc([N+](=O)[O-])cc1[N+](=O)[O-]`, for which the “hERG current change (%, negative = inhibition) at 10uM” value worked out at 5.32%.
To `CCOC(=O)c1ccc(NC(=O)c2ccc(NC(=O)c3ccccc3)cc2)cc1` belongs 2.11%.
To `C#CCOc1c(Cl)cc(C2C3=C(CCCC3=O)N(CC(=O)O)C3=C2C(=O)CCC3)cc1OC` belongs -6.23%.
For the molecule `CC(=O)N1CCN(S(=O)(=O)c2ccc3c(c2)OCCO3)CC1`, the “hERG current change (%, negative = inhibition) at 10uM” value is given as 10.5%.
In the case of `O=C(N/N=C/c1ccc(OC(=O)c2ccccc2Cl)cc1)c1cc(O)cc(O)c1`, the “hERG current change (%, negative = inhibition) at 10uM” value is listed as -5.05%.
To `CN(c1ccccc1C(=O)N1CCOCC1)S(C)(=O)=O` belongs 16.2%; to `COc1cccc(C(=O)C2CCCN(C(=O)c3ccc(C#CC(C)(C)O)cc3)C2)c1` (stereo not shown), 0.875%.
On to `NC(=O)c1ccccc1NC(=O)c1ccccc1S(=O)(=O)c1ccccc1[N+](=O)[O-]`, for which the “hERG current change (%, negative = inhibition) at 10uM” value was -25.4%.
To `CC(=O)Nc1ccc(C(=O)CSc2nc3ccccc3n2CC(=O)N2CCCC2)cc1` belongs 11.1%.
As for `CCc1ccc2oc(=O)cc(CN3CCN(Cc4ccccc4)CC3)c2c1`, the “hERG current change (%, negative = inhibition) at 10uM” value is -46.3%.
For the molecule `CCCCCc1ccc(C2=NNC(=O)CC2)cc1`, the “hERG current change (%, negative = inhibition) at 10uM” value is -17.2%.
On to `CC(=O)c1sc(NC(C)c2ccccc2)nc1C` (stereo not shown), for which the “hERG current change (%, negative = inhibition) at 10uM” value is listed as 27%.
Take `CC(C)C1NCCc2c1sc1ccccc21` (stereo not shown): the “hERG current change (%, negative = inhibition) at 10uM” value is recorded as -20.3%.
To `c1nc(N2CCCCC2)c2[nH]cnc2n1` belongs 9.4%; to `COc1cccc(NC(=O)COC(=O)CCCc2c[nH]c3ccccc23)c1`, 6.52%; to `COC(=O)c1ccc(C(c2c(C)[nH][nH]c2=O)c2c(C)[nH][nH]c2=O)cc1`, 19%.
For `Cc1ccc(-c2nc(C(Cl)Cl)c3ccccc3n2)cc1`, the “hERG current change (%, negative = inhibition) at 10uM” value stood at 4.43%.
To `Cc1ccc(NC(=O)CC2C(=O)NCCN2C(=O)c2ccc(F)cc2)cc1` (stereo not shown) belongs -26.3%.
On to `Clc1ccccc1-c1nnc(-c2ccccc2Cl)o1`, for which the “hERG current change (%, negative = inhibition) at 10uM” value is -2.56%.
Then `CC1=NNC(=O)/C1=C\c1cn(-c2ccccc2)nc1-c1cccs1`, with 15.3%; and `Cc1ccc(S(=O)(=O)NC(C)C(=O)Nc2ccc3c(c2)OCO3)cc1` (stereo not shown), with 28%.
To `Cc1c(C(=O)N(C)C2CC(C)(C)NC(C)(C)C2)oc2c(F)cccc12` belongs -20.9%; to `CCOc1cc(N2CCOCC2)c(OCC)cc1NC(=O)c1nc2nc(C)cc(C)n2n1`, 18.4%.
To `CSCCC(NS(=O)(=O)/C=C/c1ccccc1)C(=O)NCCc1ccc(S(N)(=O)=O)cc1` (stereo not shown) belongs 7.59%.
As to `CS(=O)(=O)N(CC(=O)N1CCc2ccccc2C1)c1cccc(F)c1`, the “hERG current change (%, negative = inhibition) at 10uM” value is reported as -29.4%.
Regarding `Cc1oc(-c2ccc(Cl)cc2)cc1C(=O)O`, the “hERG current change (%, negative = inhibition) at 10uM” value was 19.5%.
To `CCN(C)c1ccc(/C=N\n2nnnc2N)cc1` belongs 12%.
To `CCOCCCNC(=O)C(c1ccc(Cl)cc1)N(Cc1cccs1)C(=O)CNC(C)=O` (stereo not shown) belongs 6.74%; to `CC1(C)CC(=O)c2sc(NS(C)(=O)=O)nc2C1`, -12.3%; to `Cc1ccc(NC(=O)COc2ccccc2C(=O)NCCc2ccccc2)cc1`, 5.6%.
Then `Cc1nc(NC(=O)/C=C/c2ccco2)sc1C`, with 11%.
As for `COCCn1c(SCC(=O)Nc2cccc(S(N)(=O)=O)c2)nc2cc(Cl)ccc2c1=O`, the “hERG current change (%, negative = inhibition) at 10uM” value is -38.8%.
To `COc1ccccc1NC(=S)N1CCN(C/C=C/c2ccccc2)CC1` belongs -0.974%.
Then `CCOC(=O)N1CCC(NC(=O)C2CCCN(C(=O)N3CCOc4ccccc43)C2)CC1` (stereo not shown), with 3.21%.
Then `CCOC(=O)c1c(NC(=O)COC(=O)Cc2c[nH]c3ccccc23)sc(C(=O)N(C)C)c1C`, with -62.5%; and `Cc1ccc(NC(=O)CN2C(=O)NC(C)(C3CC3)C2=O)c([N+](=O)[O-])c1` (stereo not shown), with -13.1%; and `CCC(C)NC(=O)Nc1ccccc1C` (stereo not shown), with 20.4%.
Regarding `Cc1ccc(CN2C(=O)CCC2C(=O)NCCN(CC(C)C)CC(C)C)cc1` (stereo not shown), the “hERG current change (%, negative = inhibition) at 10uM” value was -13.4%.
With `CC(C)CC(=O)NC(Oc1ccc(Cl)cc1)C(Cl)(Cl)Cl` (stereo not shown), the “hERG current change (%, negative = inhibition) at 10uM” value is listed as 1.66%.
On to `C/C(=N\NC(=O)c1c(Br)c(C)nn1C)c1cccc(NC(=O)C2CCC2)c1`, for which the “hERG current change (%, negative = inhibition) at 10uM” value is -19.4%.
To `CNc1nc(-c2ccc3c(c2)CCN3C(=O)c2cccc(F)c2)cs1` belongs -7.81%; to `CCOCCCN1C(=O)CN(C2CCCCC2)C(=O)C1c1ccc(OC)c(OC)c1` (stereo not shown), 5.23%; to `CCn1c(=O)cc(SCC(=O)NCc2cccnc2)c2ccccc21`, -5.05%.
Then `COc1cc(C)c(COc2ncnc3ccccc23)cc1OC`, with 0.808%; and `O=C1[C@@H]2C(c3cccnc3)=NO[C@@H]2C(=O)N1c1ccc(Cl)cc1Cl`, with 10.2%; and `CC1=C/C(=C/N(C)C)C(=O)O1`, with 27.4%.
Then `CC1(C)Cc2c(sc(NC(=O)C(=O)NCCCN3CCOCC3)c2C(N)=O)CO1`, with 7.55%; and `O=C(c1ccccc1)c1nccn1-c1ccc(Cl)nn1`, with 2.26%.
`O=C(Nc1ccc(Cl)c(Cl)c1)Nc1ccccc1O`: the “hERG current change (%, negative = inhibition) at 10uM” value was determined as 3.98%.
To `CCN(CC)C(=O)CN1C(=O)C(=O)c2ccccc21` belongs 21.3%.
Regarding `O=C(/C=C/c1ccc2c(c1)OCCO2)c1ccc(O)cc1`, the “hERG current change (%, negative = inhibition) at 10uM” value is 0.62%.
To `CC(C)C(=O)Nc1nc2cc3c(cc2s1)OCCO3` belongs -4.59%; to `CCOC(=O)CC1C(=O)NCCN1C(=O)c1cc2c(=O)n3cccc(C)c3nc2s1` (stereo not shown), 8.8%; to `CCNc1nnc(-c2ccncc2)s1`, 7.29%.
For the molecule `Cc1cccc(NC(=O)c2nc[nH]c2C(=O)Nc2cccc(C)c2)c1`, the “hERG current change (%, negative = inhibition) at 10uM” value came out at 25.1%.
To `COc1cccc(CNC(=O)C(C)n2nc(C)n3c(cc4occc43)c2=O)c1` (stereo not shown) belongs 7.17%; to `COC(=O)c1ccc(C(=O)OC)c(NC(=O)COC(=O)CCOc2ccc(C)cc2)c1`, 21.2%; to `CCc1ccc(NC(=O)N(C2CCCCC2)C(C)c2cccnc2)cc1` (stereo not shown), -3.41%.
